{"source": "paper PMC4336329", "about": "(PLoS ONE, 2015)", "note": "Screen size: about 310,000 compounds; about 2,200 (0.71%) showed an effect of 50% or more. Effects have a minus sign here. This is one part of the list.", "data": [{"target": "human ether-à-go-go-related gene (hERG) potassium channel (human, UniProt Q12809)", "sequence (Q12809 whole entry, looked up)": "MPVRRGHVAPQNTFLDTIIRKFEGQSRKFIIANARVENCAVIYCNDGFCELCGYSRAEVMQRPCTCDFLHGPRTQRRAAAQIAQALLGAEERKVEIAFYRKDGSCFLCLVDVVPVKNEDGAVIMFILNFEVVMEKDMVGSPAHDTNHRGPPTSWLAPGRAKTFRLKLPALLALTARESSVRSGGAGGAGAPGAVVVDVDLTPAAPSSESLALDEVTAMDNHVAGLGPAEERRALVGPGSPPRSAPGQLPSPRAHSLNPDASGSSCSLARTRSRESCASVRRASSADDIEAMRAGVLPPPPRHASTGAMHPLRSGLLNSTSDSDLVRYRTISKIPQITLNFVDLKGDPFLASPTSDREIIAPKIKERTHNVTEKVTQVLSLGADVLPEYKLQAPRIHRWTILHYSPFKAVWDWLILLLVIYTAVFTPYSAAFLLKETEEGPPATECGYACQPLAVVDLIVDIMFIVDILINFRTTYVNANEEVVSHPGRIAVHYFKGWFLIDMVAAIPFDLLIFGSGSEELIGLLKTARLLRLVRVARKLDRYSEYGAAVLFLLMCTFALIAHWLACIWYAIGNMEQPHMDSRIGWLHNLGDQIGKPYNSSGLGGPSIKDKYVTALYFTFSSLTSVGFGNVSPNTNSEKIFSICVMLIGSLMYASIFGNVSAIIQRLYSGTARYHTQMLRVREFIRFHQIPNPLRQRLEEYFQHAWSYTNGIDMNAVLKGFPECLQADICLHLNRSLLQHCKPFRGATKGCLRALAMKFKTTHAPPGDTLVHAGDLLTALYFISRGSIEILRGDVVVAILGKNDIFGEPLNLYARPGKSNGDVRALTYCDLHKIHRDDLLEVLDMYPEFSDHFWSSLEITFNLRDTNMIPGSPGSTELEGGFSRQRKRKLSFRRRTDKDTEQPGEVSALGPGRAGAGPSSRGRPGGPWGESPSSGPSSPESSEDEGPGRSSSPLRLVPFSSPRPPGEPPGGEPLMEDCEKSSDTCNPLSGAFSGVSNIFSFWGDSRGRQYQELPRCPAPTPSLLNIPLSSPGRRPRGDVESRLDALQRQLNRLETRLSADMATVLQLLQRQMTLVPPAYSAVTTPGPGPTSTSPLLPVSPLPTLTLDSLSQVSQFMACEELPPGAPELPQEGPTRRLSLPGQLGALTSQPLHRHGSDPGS", "test": "primary screen, population patch clamp on CHO cells stably expressing hERG", "units": {"hERG current change (%, negative = inhibition) at 1uM": "%"}, "values": [{"smiles": "NC(=O)CCN(Cc1ccccc1)S(=O)(=O)c1ccccc1", "hERG current change (%, negative = inhibition) at 1uM": -4.85}, {"smiles": "CC1CCCCC1NC(=O)CCc1nc2sc3c(c2c(=O)[nH]1)CCCC3", "note": "(stereo not drawn)", "hERG current change (%, negative = inhibition) at 1uM": 0.979}, {"smiles": "CC/C(=N\\NC(=O)c1c[nH]c2ccccc12)c1cccs1", "hERG current change (%, negative = inhibition) at 1uM": 9.67}, {"smiles": "CC(C)(C)c1ccc(-c2nn(CCC#N)cc2/C=N/O)cc1", "hERG current change (%, negative = inhibition) at 1uM": -3.26}, {"smiles": "COc1ccc(NC(=O)c2ccc(OCC3CCCO3)cc2)cc1OC", "note": "(stereo not drawn)", "hERG current change (%, negative = inhibition) at 1uM": 9.78}, {"smiles": "Cc1ccc(NC(=O)CSc2ccc(-c3ccccn3)nn2)cc1", "hERG current change (%, negative = inhibition) at 1uM": 6.1}, {"smiles": "N/C(=N/S(=O)(=O)c1ccccc1)c1cccc([N+](=O)[O-])c1", "hERG current change (%, negative = inhibition) at 1uM": 4.16}, {"smiles": "CCc1ccc(NC(=O)C2CCCN(S(=O)(=O)c3c(C)[nH]c(=O)[nH]c3=O)C2)cc1", "note": "(stereo not drawn)", "hERG current change (%, negative = inhibition) at 1uM": 13.7}, {"smiles": "N#Cc1cc2c(nc1SCC(=O)O)CCCCC2", "hERG current change (%, negative = inhibition) at 1uM": 8.54}, {"smiles": "O=C(CN1C(=O)NC2(CCCc3ccccc32)C1=O)N1CCCCC1", "note": "(stereo not drawn)", "hERG current change (%, negative = inhibition) at 1uM": 15.7}, {"smiles": "COc1cc(OC)cc(C(=O)Nc2ccc(S(=O)(=O)Nc3cnc4ccccc4n3)cc2)c1", "hERG current change (%, negative = inhibition) at 1uM": 12.9}, {"smiles": "CCOC(=O)N1CCN(C(=O)c2cccn3c(=O)c4c5c(sc4nc23)CCCC5)CC1", "hERG current change (%, negative = inhibition) at 1uM": -8.93}, {"smiles": "OCC1(Cc2ccccc2)CCCN(Cc2ccn[nH]2)C1", "note": "(stereo not drawn)", "hERG current change (%, negative = inhibition) at 1uM": 0.885}, {"smiles": "CCN(CC)S(=O)(=O)c1ccc(C(=O)OCC(=O)NCc2ccco2)cc1", "hERG current change (%, negative = inhibition) at 1uM": -0.0945}, {"smiles": "CN1CCC2(CC1)CC(NC=O)c1ccccc1O2", "note": "(stereo not drawn)", "hERG current change (%, negative = inhibition) at 1uM": 19.3}, {"smiles": "CN1C2CCC1CC(OC(=O)c1ccc(Cl)cc1)C2.Cl", "note": "(stereo not drawn)", "hERG current change (%, negative = inhibition) at 1uM": -9.75}, {"smiles": "C[C@H](NC(=O)[C@H]1N2C(=O)c3ccccc3C2SC1(C)C)C(=O)NCc1ccncc1", "note": "(stereo partly drawn)", "hERG current change (%, negative = inhibition) at 1uM": 27.1}, {"smiles": "COC(=O)c1cnn(-c2ccccc2)c1C(OC)OC", "hERG current change (%, negative = inhibition) at 1uM": 15.7}, {"smiles": "CCOc1nnc(C)c2c(C)n(-c3cccc(OC)c3)nc12", "hERG current change (%, negative = inhibition) at 1uM": 12.7}, {"smiles": "O=C(N/N=C/c1cccnc1)c1cc(-c2cccs2)nc2ccccc12", "hERG current change (%, negative = inhibition) at 1uM": 7.79}, {"smiles": "CCO[C@H]1OC(C(=O)N2CCN(C)CC2)=C[C@@H](c2ccc(C(F)(F)F)cc2)[C@@H]1CCCO", "hERG current change (%, negative = inhibition) at 1uM": 6.07}, {"smiles": "COC(=O)c1ccc(C(=O)N(CCN(C)C)c2nc3c(Cl)cccc3s2)cc1.Cl", "hERG current change (%, negative = inhibition) at 1uM": 3.52}, {"smiles": "O=c1[nH]c(CN(CCc2ccccc2)S(=O)(=O)c2ccc(Cl)cc2)nc2ccccc12", "hERG current change (%, negative = inhibition) at 1uM": 6.8}, {"smiles": "Cc1nc2ccccc2n1CC(=O)NC1CCCC1", "hERG current change (%, negative = inhibition) at 1uM": 16.9}]}]}
